This is an account of results in article PMC4336329 (PLoS ONE, 2015).

Out of some 310,000 compounds screened, about 2,200 (0.71%) showed an effect of 50% or more. Effects have a minus sign here. Some of the results follow.

The target in the assay is human ether-à-go-go-related gene (hERG) potassium channel (human, UniProt Q12809). Nature of the assay: primary screen, population patch clamp on CHO cells stably expressing hERG.
Sequence of human ether-à-go-go-related gene (hERG) potassium channel (Q12809 whole entry, looked up): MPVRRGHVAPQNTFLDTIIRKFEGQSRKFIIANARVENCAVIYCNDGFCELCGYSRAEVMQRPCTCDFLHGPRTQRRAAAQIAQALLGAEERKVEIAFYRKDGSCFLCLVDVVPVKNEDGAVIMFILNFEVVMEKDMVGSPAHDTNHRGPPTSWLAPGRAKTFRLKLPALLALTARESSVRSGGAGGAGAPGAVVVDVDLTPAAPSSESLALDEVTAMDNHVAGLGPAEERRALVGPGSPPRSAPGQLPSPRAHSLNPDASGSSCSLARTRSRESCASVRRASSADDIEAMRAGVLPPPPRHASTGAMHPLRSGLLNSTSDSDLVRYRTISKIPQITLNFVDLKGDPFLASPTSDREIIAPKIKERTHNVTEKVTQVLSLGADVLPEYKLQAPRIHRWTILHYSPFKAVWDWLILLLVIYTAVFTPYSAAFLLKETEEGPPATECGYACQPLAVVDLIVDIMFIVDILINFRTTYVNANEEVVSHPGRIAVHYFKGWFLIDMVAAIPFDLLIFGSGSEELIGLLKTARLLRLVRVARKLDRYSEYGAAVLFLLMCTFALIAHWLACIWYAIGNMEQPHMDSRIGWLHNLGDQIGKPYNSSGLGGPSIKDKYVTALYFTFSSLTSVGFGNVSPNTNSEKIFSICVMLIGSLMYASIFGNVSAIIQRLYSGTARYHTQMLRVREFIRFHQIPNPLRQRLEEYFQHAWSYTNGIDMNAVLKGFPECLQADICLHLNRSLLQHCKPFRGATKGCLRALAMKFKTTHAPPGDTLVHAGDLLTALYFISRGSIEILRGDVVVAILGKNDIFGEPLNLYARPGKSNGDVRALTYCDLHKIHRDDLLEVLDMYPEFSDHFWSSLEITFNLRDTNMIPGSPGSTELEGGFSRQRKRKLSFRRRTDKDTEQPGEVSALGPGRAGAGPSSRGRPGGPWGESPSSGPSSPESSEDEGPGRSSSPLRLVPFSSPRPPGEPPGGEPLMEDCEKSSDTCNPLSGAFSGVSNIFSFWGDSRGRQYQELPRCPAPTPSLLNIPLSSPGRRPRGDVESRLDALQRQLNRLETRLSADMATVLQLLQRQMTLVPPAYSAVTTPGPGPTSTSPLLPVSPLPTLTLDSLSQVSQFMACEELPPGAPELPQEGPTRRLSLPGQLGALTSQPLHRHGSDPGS
In the case of `CCCCNC(=O)Cc1ccc(C)cc1`, the “hERG current change (%, negative = inhibition) at 1uM” value stood at 16.7%.
For the compound `O=C(Nc1cccc(Cl)c1)N(CCN1CCOCC1)Cc1ccccc1F`, the “hERG current change (%, negative = inhibition) at 1uM” value is on record as -1.78%.
The result for `N#Cc1nc(-c2ccco2)oc1N1CCN(C(c2ccccc2)c2ccccc2)CC1` reads 5.8%.
Consider `O=C(CSc1nnnn1-c1ccccc1)Nc1nsc(-c2ccc(Cl)cc2)n1`, for which the “hERG current change (%, negative = inhibition) at 1uM” value is recorded as 18.7%.
The result for `O=C(c1ccc(S(=O)(=O)N2CCOCC2)cc1)N(c1cccc(Cl)c1)C1C=CS(=O)(=O)C1` (stereo not shown) reads 14.4%.
With `CCN(CC(=O)Nc1cc(Cl)ccc1C)C(=O)c1cc([N+](=O)[O-])ccc1N1CCOCC1`, the “hERG current change (%, negative = inhibition) at 1uM” value was 10.8%.
The result for `CC(C)(C)c1cc(C(=O)NN)n(Cc2ccc(F)cc2)n1` reads 1.62%; that for `C=CCCN(C1CCCC1)S(=O)(=O)c1ccccc1Br`, 15.6%; that for `CCCCNC(=S)NCCN1CCCCC1.O=C(O)C(=O)O`, 3.72%.
The result for `COc1cccc(CNS(=O)(=O)c2ccc3c(c2)CC(C)N3C(=O)C2CC2)c1` (stereo not shown) reads 13%.
The result for `O=S(=O)(Nc1nc(-c2ccccc2)cs1)c1cc(Cl)ccc1Cl` reads 15.4%.
As to `CCC(C)C(NC=C1C(=O)OC(C)(C)OC1=O)C(=O)O` (stereo not shown), the “hERG current change (%, negative = inhibition) at 1uM” value is on record as -0.226%.
The result for `COc1ccc(-n2ccc3ccccc32)cc1` reads 11.1%.
The result for `CCCCOC(=O)Nc1nnc(-c2ccccc2OC)s1` reads 12.2%.
The result for `O=C(Cc1nc2ccccc2[nH]1)c1ccc(Br)cc1` reads 10.6%; that for `C=CCN1C(=O)c2ccc(C(=O)N(C)CC(=O)Nc3ccccc3C(F)(F)F)cc2C1=O`, 5.61%.
Regarding `CCCCn1c(O)c(C(C)=NCc2ccc(F)cc2)c(=O)[nH]c1=O`, the “hERG current change (%, negative = inhibition) at 1uM” value turned out to be 16.9%.
The result for `CN1C(=O)CC(c2ccccc2)C1=O` (stereo not shown) reads 12.5%.
For `CC1CCN(C(=O)c2ccc(NC(=O)C3CCCO3)cc2)CC1` (stereo not shown), the “hERG current change (%, negative = inhibition) at 1uM” value is reported as 12%.
The result for `O=C(NN1C(=O)C2C(c3ccccc3)C=CC(c3ccccc3)C2C1=O)c1cccc(Br)c1` (stereo not shown) reads 14%; that for `COC(=O)C(NC(C)=O)(Nc1ccc(C)cn1)C(F)(F)F` (stereo not shown), 21.1%; that for `Cc1cc(C)cc(NC(=S)NCc2cccnc2)c1`, -2.42%.
The result for `CCC(=O)N1c2ccc(S(=O)(=O)N(CCO)Cc3ccccc3)cc2CC1C` (stereo not shown) reads -2.82%; that for `COc1ccc(OCc2n[nH]c(=S)o2)cc1`, 5.46%.
The result for `NC(=O)C1CCN(C(=O)C2CCC(=O)N(C3CCCCCC3)C2)CC1` (stereo not shown) reads 7.15%.
On to `O=C(N/N=C/c1c[nH]c2ccccc12)c1cc(-c2ccc(-c3ccccc3)cc2)n[nH]1`, for which the “hERG current change (%, negative = inhibition) at 1uM” value is 12%.
The result for `Cc1ccc2ccc[n+](Cc3ccccc3)c2c1.[Br-]` reads 5.61%.
Turning to `CN1C(=O)c2cccc3c(S(=O)(=O)NCc4ccco4)ccc1c23`, the “hERG current change (%, negative = inhibition) at 1uM” value is on record as -20%.
With `CCOc1ccc(C(C)(N)C(=O)O)cc1` (stereo not shown), the “hERG current change (%, negative = inhibition) at 1uM” value is -1.32%.
Turning to `CC(C)c1ccc(-c2nn[nH]n2)cc1`, the “hERG current change (%, negative = inhibition) at 1uM” value is 10.2%.
The result for `C#CCOCCOCCOCCNc1nc(N2CCN(C(=O)CCCCCCCCCCNC(=O)[C@@H](CCC(=O)O)n3cc(CCCCCN)nn3)CC2)nc(N2CCN(C(=O)CCCCCCCCCCNC(=O)[C@H](CO)n3cc(CCCCCN)nn3)CC2)n1` reads 7.08%.
The result for `CC(C)Oc1ccc(C(=O)Nc2ccc(N3CCCCC3)cc2)cc1` reads 11.3%; that for `CC12CN3CCN(CC(C3)/C1=N/N=C/c1cccc([N+](=O)[O-])c1)C2`, 12.2%.
On to `COCCn1c(CN2CCC(Cc3ccccc3)CC2)nc2c1c(=O)n(C)c(=O)n2C`, for which the “hERG current change (%, negative = inhibition) at 1uM” value is given as -3.7%.
For the compound `CCCN(CCC)C(=O)NC1CC(=O)N(c2ccc(OC)cc2)C1` (stereo not shown), the “hERG current change (%, negative = inhibition) at 1uM” value turned out to be 9.05%.
The result for `Cc1cc(=O)[nH]c(SCC(=O)c2ccc(F)c(C)c2)n1` reads 11.9%; that for `COc1cccc(C(=O)Nn2cnnc2)c1`, 14.2%.
The result for `CC1(C)Cc2c(cnn2-c2ccc(F)cc2)C(NC(=O)CCn2cncn2)C1` (stereo not shown) reads -40.7%.
The result for `CCCS(=O)(=O)N1CCN(Cc2ccccc2[N+](=O)[O-])CC1.O=C(O)C(=O)O` reads 3.36%; that for `COc1ccccc1C(=O)NNC(=O)c1ccccc1F`, 8.36%.
As for `Clc1ccc(OCc2nnc3n2N=C(c2ccc4c(c2)OCCO4)CS3)c(Cl)c1`, the “hERG current change (%, negative = inhibition) at 1uM” value stood at 10.5%.
The result for `Cn1c(Cn2c(=O)sc3ccccc32)nnc1SCc1ccc(F)cc1` reads -9.62%; that for `COC(=O)CSc1nc(C)cc(Oc2ccccc2)n1`, 7.59%; that for `Cc1ccc(C)c(N2CCN(S(=O)(=O)c3ccc4c(c3)CC(C)N4C(=O)C3CC3)CC2)c1` (stereo not shown), 15.5%.
On to `COc1ccc(CNC(=O)COC(=O)c2ccc(OCC3CCCO3)cc2)cc1` (stereo not shown), for which the “hERG current change (%, negative = inhibition) at 1uM” value was determined as 8.5%.
The result for `CN(C)S(=O)(=O)c1ccc(N2CCCC2)c(C(=O)N2CCN(S(=O)(=O)c3cccc(F)c3)CC2)c1` reads 18.1%; that for `CC(C)(C)CN1CCNC(=O)C1CC(=O)NCCc1ccccc1F` (stereo not shown), 2.89%.
The result for `Nc1c(C(=O)Nc2ccc3c(c2)OCCO3)nnn1Cc1cccc(F)c1` reads 6.29%; that for `CC(C)(C)NC(=O)CSc1ncnc2c1nnn2Cc1ccccc1Cl`, 6.84%.
The result for `COc1cc2c(cc1NC(=O)COc1ccccc1OC)oc1ccccc12` reads 6.52%; that for `Cc1oc2ccc(OC(C(=O)O)c3ccccc3)cc2c1C(=O)O` (stereo not shown), 6.15%.
Turning to `Cc1ccc(CNC(=O)CSc2nc(C)cs2)cc1`, the “hERG current change (%, negative = inhibition) at 1uM” value is on record as 6.56%.
The result for `COc1ccc(N(CC(=O)N2CCc3ccccc3C2)S(=O)(=O)c2ccccc2)cc1` reads 3.33%.
As to `CCOC(=O)c1c2c(n(C)c1COC)C(=O)C(=O)c1ccc(Br)cc1-2`, the “hERG current change (%, negative = inhibition) at 1uM” value is reported as 8.94%.
The result for `O=C(Nc1cc(Cl)ccc1N1CCCC1)C1=NN(c2ccccc2)C(=O)CC1` reads 17%; that for `COc1ccc(C(=O)NCc2ccc(-c3nc4ccccc4s3)cc2)cc1`, 16.5%; that for `O=C(CN(Cc1ccc(F)cc1)C(=O)C1CSC(=O)C1)NC1CCCCC1` (stereo not shown), 0.316%.
Consider `CCCN(CCC)CCNC(=O)c1cc2c(-c3ccccc3F)nn(C)c2s1`, for which the “hERG current change (%, negative = inhibition) at 1uM” value was 6.33%.
The result for `COc1ccc(CN(CC(=O)NCc2ccc(F)cc2)C(=O)CCC(=O)Nc2nccs2)cc1` reads -2.33%.
The result for `Cc1ccc([N+](=O)[O-])cc1` reads 7.62%.
The result for `CN(CC(=O)NCCc1ccccc1)S(=O)(=O)c1cccs1` reads 12.8%; that for `Cn1c(SCC(=O)Nc2cc(Cl)cc(Cl)c2)nnc1-c1ccc2nonc2c1`, 14%.
Take `CCOC(=O)CNC(=O)C1(/C=C/c2ccccc2)CC(=O)N1c1ccc(C)cc1` (stereo not shown): the “hERG current change (%, negative = inhibition) at 1uM” value came out at 8.37%.
The result for `CCOc1ccc(NC(=O)C2CC(=O)N(c3ccccc3F)C2)cc1` (stereo not shown) reads 11.1%; that for `CCC1CCCCN1C(=S)NC1CCCCC1` (stereo not shown), 11.8%; that for `Cc1cc2cc(C#N)c(NCCNC(=S)NCCCN3CCOCC3)nc2cc1C`, -1.58%.
The result for `Cc1ccccc1NC(=O)CSC1=NCCN1.Cl` reads 14.3%.
As for `Cc1ccccc1C1c2[nH]c3ccccc3c2CCN1C(=O)c1ccc(=O)n(C)n1` (stereo not shown), the “hERG current change (%, negative = inhibition) at 1uM” value is given as 7.28%.
The result for `COc1ccc(OC)c2c1cc(C(=O)N[C@@H](Cc1ccccc1)C(=O)O)n2C` reads 6.35%.
The result for `COc1cccc(C2C(C(=O)Nc3ccc(C)cc3C)=C(C)Nc3ncnn32)c1OC` (stereo not shown) reads 8.03%; that for `CC(C)C[C@@H](CC#N)N1CCN(Cc2ccccc2)CCC1=O`, 10.4%; that for `Cc1ccc(S(=O)(=O)c2nc(-c3ccccc3)oc2NCc2cccnc2)cc1`, 7.82%.
For `Cc1ccc(-c2nc(COC(=O)c3c(C)noc3C)cs2)cc1`, the “hERG current change (%, negative = inhibition) at 1uM” value is 1.75%.
The result for `O=C(OCC1OC(Oc2ccc(O)cc2)C(O)C(O)C1O)c1ccccc1` (stereo not shown) reads 12.4%.
The result for `CS(=O)(=O)Nc1ccc(C(=O)NCc2ccc3c(c2)OCO3)cc1` reads -3.54%; that for `CCCCOc1cccc(NC(=O)CSc2nncn2C)c1`, 4.76%; that for `CC(C)OCCCNC(=O)NC12CC3CC(CC(C3)C1)C2`, 6.16%.
The result for `O=C(CN(Cc1ccc(Br)cc1)S(=O)(=O)c1ccccc1)NCc1ccccn1` reads 5.09%; that for `Cc1cccc(CN2CCNC2=O)c1`, 11.5%.
Consider `COc1ccc(C(C)(C)C)cc1NC(=O)Cn1cnnn1`, for which the “hERG current change (%, negative = inhibition) at 1uM” value was found to be 11.9%.
The result for `O=[N+]([O-])c1ncccc1OCc1ccc(Br)cc1F` reads 14.8%; that for `Cc1[nH]n(-c2ccccc2)c(=O)c1C(c1ccccc1[N+](=O)[O-])C(C#N)C#N` (stereo not shown), 7.07%.
The result for `CC(=O)Nc1ccc(NC(=O)COC(=O)c2c(-c3ccccc3)noc2C)cc1` reads 7.61%; that for `CCOC(=O)CN(C#N)c1nc(N(C)C)nc(N(C)C)n1`, 0.959%.
The result for `O=C(Nc1ccc(Cl)cn1)C1C(c2ccccc2)C1(Cl)Cl` (stereo not shown) reads 21.9%.
With `O=C(CN1CCN(S(=O)(=O)N2CCCCC2)CC1)Nc1cc(Cl)cc(Cl)c1`, the “hERG current change (%, negative = inhibition) at 1uM” value is given as -12.2%.
Turning to `O=c1c(OC2OC(CO)C(O)C(O)C2OC2OC(CO)C(O)C(O)C2OC2OC(CO)C(O)C(O)C2O)c(-c2ccc(O)c(O)c2)oc2cc(O)cc(O)c12` (stereo not shown), the “hERG current change (%, negative = inhibition) at 1uM” value is 15.5%.
The result for `COc1ccccc1CO/N=C/c1cccn1-c1nccc(N(C)C)c1C#N` reads 1.23%.
